# Laboratory results reported in the supplement of paper PMC7125110.
# ± gives the standard error. Variants at the floor of the assay are shown more often than the library holds them.
# B1: glmS ribozyme (parent)
# chain: AUAAAAGCGCCAGAACUACAGAAAUGUAGUUGACGAGGAGGAGGUUUAUCGAAUUUUCGGCGGAUGCCUCCAAA
# Columns and labels:
# Details in all cases: with glucosamine-6-phosphate
# glucosamine-6-phosphate [1] = variants of: B1; assay: self-cleavage kobs at 40 uM GlcN6P; higher = faster cleavage; RNA array
# Outline: (§1)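 Glucosamine-6-phosphate in HEPES/KCl/Mg(OAc)2 buffer, at 40 μM to 10 mM, was flowed over barcoded ribozyme variants transcribed in situ by E. coli RNA polymerase on sequenced MiSeq chips. Tracking was through a hybridised Cy3 probe at 37 °C. kobs, kcat and KM came from exponential decay fits and weighted Michaelis–Menten fits of normalised per-tile medians.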
# glucosamine-6-phosphate [2] = variants of: B1; assay: self-cleavage kobs at 640 uM GlcN6P; higher = faster cleavage; RNA array
# Outline: as §1
# glucosamine-6-phosphate [3] = variants of: B1; assay: self-cleavage kobs at 160 uM GlcN6P; higher = faster cleavage; RNA array
# Outline: as §1
# glucosamine-6-phosphate [4] = variants of: B1; assay: self-cleavage kobs at 2500 uM GlcN6P; higher = faster cleavage; RNA array
# Outline: as §1
# glucosamine-6-phosphate [5] = variants of: B1; assay: self-cleavage kobs at 10000 uM GlcN6P; higher = faster cleavage; RNA array
# Outline: as §1
Variant,self-cleavage kobs at 40 uM GlcN6P (glucosamine-6-phosphate [1]),self-cleavage kobs at 640 uM GlcN6P (glucosamine-6-phosphate [2]),self-cleavage kobs at 160 uM GlcN6P (glucosamine-6-phosphate [3]),self-cleavage kobs at 2500 uM GlcN6P (glucosamine-6-phosphate [4]),self-cleavage kobs at 10000 uM GlcN6P (glucosamine-6-phosphate [5])
A6U C8A G59C U65G,< 1e-05 s⁻¹,–,–,–,–
A6U C10A,< 1e-05 s⁻¹,< 1e-05 s⁻¹,< 1e-05 s⁻¹,–,–
A6U C11A U30G G63A G66A C67G,< 1e-05 s⁻¹,–,–,–,–
A6U C16A,< 1e-05 s⁻¹,< 1e-05 s⁻¹,–,–,–
A6U C16U A64U,< 1e-05 s⁻¹,–,–,–,–
A6U C61U,< 1e-05 s⁻¹,< 1e-05 s⁻¹,–,< 1e-05 s⁻¹,< 1e-05 s⁻¹
A6U G7C C8G G38U,< 1e-05 s⁻¹,–,–,–,–
A6U G7C C50U,< 1e-05 s⁻¹,–,–,–,< 1e-05 s⁻¹
A6U G7C U31G G43C U45G,< 1e-05 s⁻¹,–,–,–,–
A6U G7U A33U G37U G44C U49G A64U,< 1e-05 s⁻¹,–,–,–,–
A6U G9C,< 1e-05 s⁻¹,–,–,–,–
A6U G13C A39U U46G A48U U55A C61U,< 1e-05 s⁻¹,–,–,–,< 1e-05 s⁻¹
A6U G13U C16U A36G,< 1e-05 s⁻¹,–,–,–,< 1e-05 s⁻¹
A6U G29A C61U,< 1e-05 s⁻¹,< 1e-05 s⁻¹,–,< 1e-05 s⁻¹,< 1e-05 s⁻¹
A6U G32C A52U,< 1e-05 s⁻¹,–,–,–,< 1e-05 s⁻¹
A6U G41A A42U,< 1e-05 s⁻¹,–,–,–,–
A6U G43U G44A A53U,< 1e-05 s⁻¹,–,–,–,–
A6U G44A,< 1e-05 s⁻¹,< 1e-05 s⁻¹,< 1e-05 s⁻¹,< 1e-05 s⁻¹,< 1e-05 s⁻¹
A6U G59C,< 1e-05 s⁻¹,< 1e-05 s⁻¹,< 1e-05 s⁻¹,< 1e-05 s⁻¹,< 1e-05 s⁻¹
A6U U69A,< 1e-05 s⁻¹,–,–,–,–
G7A A12C A42C U49A G60C,< 1e-05 s⁻¹,–,–,–,< 1e-05 s⁻¹
G7A A15U C58A,< 1e-05 s⁻¹,< 1e-05 s⁻¹,–,< 1e-05 s⁻¹,< 1e-05 s⁻¹
G7A A33U C50U,< 1e-05 s⁻¹,–,< 1e-05 s⁻¹,< 1e-05 s⁻¹,–
G7A A36U G59U,< 1e-05 s⁻¹,–,–,–,< 1e-05 s⁻¹

Variant,self-cleavage kobs at 40 uM GlcN6P (glucosamine-6-phosphate [1]),self-cleavage kobs at 640 uM GlcN6P (glucosamine-6-phosphate [2]),self-cleavage kobs at 160 uM GlcN6P (glucosamine-6-phosphate [3]),self-cleavage kobs at 2500 uM GlcN6P (glucosamine-6-phosphate [4]),self-cleavage kobs at 10000 uM GlcN6P (glucosamine-6-phosphate [5])
G7A A48C A53C,< 1e-05 s⁻¹,–,–,–,< 1e-05 s⁻¹
G7A A52G U65A,< 1e-05 s⁻¹,< 1e-05 s⁻¹,–,–,–
G7A A52U,< 1e-05 s⁻¹,< 1e-05 s⁻¹,< 1e-05 s⁻¹,< 1e-05 s⁻¹,< 1e-05 s⁻¹
G7A C8A,< 1e-05 s⁻¹,< 1e-05 s⁻¹,< 1e-05 s⁻¹,< 1e-05 s⁻¹,< 1e-05 s⁻¹
G7A C8G G9C C70U,< 1e-05 s⁻¹,–,< 1e-05 s⁻¹,–,–
G7A C10G,< 1e-05 s⁻¹,< 1e-05 s⁻¹,< 1e-05 s⁻¹,< 1e-05 s⁻¹,< 1e-05 s⁻¹
G7A C10G C50A G59C U69C,< 1e-05 s⁻¹,–,–,–,< 1e-05 s⁻¹
G7A C16G U46A U56C,< 1e-05 s⁻¹,–,–,–,< 1e-05 s⁻¹
G7A C16U G29C G32C A53U U54A,< 1e-05 s⁻¹,–,–,–,< 1e-05 s⁻¹
G7A G29C U57G C70G,0.000158 ± 7.6e-05 s⁻¹,–,–,–,0.000678 ± 0.00017 s⁻¹
G7A G35C,< 1e-05 s⁻¹,< 1e-05 s⁻¹,–,< 1e-05 s⁻¹,< 1e-05 s⁻¹
G7A G37C C50A A52U,< 1e-05 s⁻¹,< 1e-05 s⁻¹,< 1e-05 s⁻¹,–,–
G7A U45A,< 1e-05 s⁻¹,–,< 1e-05 s⁻¹,–,–
G7A U45G,< 1e-05 s⁻¹,< 1e-05 s⁻¹,–,< 1e-05 s⁻¹,< 1e-05 s⁻¹
G7A U46G C67U,< 1e-05 s⁻¹,–,–,–,–
G7A U49G,< 1e-05 s⁻¹,< 1e-05 s⁻¹,< 1e-05 s⁻¹,< 1e-05 s⁻¹,–
G7C,< 1e-05 s⁻¹,< 1e-05 s⁻¹,< 1e-05 s⁻¹,< 1e-05 s⁻¹,< 1e-05 s⁻¹
G7C A15U,< 1e-05 s⁻¹,–,< 1e-05 s⁻¹,–,< 1e-05 s⁻¹
G7C A52C G60A,< 1e-05 s⁻¹,–,–,–,< 1e-05 s⁻¹
G7C C10U,< 1e-05 s⁻¹,–,–,–,< 1e-05 s⁻¹
G7C C10U U46A U55A C71A,< 1e-05 s⁻¹,–,–,–,–
G7C C11A G40A,< 1e-05 s⁻¹,–,–,–,–
G7C C11G U54C,< 1e-05 s⁻¹,< 1e-05 s⁻¹,< 1e-05 s⁻¹,< 1e-05 s⁻¹,< 1e-05 s⁻¹
G7C C11U G62U,< 1e-05 s⁻¹,–,–,–,–

Variant,self-cleavage kobs at 40 uM GlcN6P (glucosamine-6-phosphate [1]),self-cleavage kobs at 640 uM GlcN6P (glucosamine-6-phosphate [2]),self-cleavage kobs at 160 uM GlcN6P (glucosamine-6-phosphate [3]),self-cleavage kobs at 2500 uM GlcN6P (glucosamine-6-phosphate [4]),self-cleavage kobs at 10000 uM GlcN6P (glucosamine-6-phosphate [5])
G7C C67U,< 1e-05 s⁻¹,< 1e-05 s⁻¹,< 1e-05 s⁻¹,< 1e-05 s⁻¹,< 1e-05 s⁻¹
G7C G13C G29U U69A,< 1e-05 s⁻¹,–,–,–,< 1e-05 s⁻¹
G7C G29U G32U A64C,< 1e-05 s⁻¹,–,–,–,–
G7C G32A A36G C70G C71A,< 1e-05 s⁻¹,–,–,–,–
G7C G32U C61A,< 1e-05 s⁻¹,–,–,< 1e-05 s⁻¹,< 1e-05 s⁻¹
G7C G44C,< 1e-05 s⁻¹,< 1e-05 s⁻¹,–,–,–
G7C G62U,< 1e-05 s⁻¹,–,–,–,–
G7C U30A,< 1e-05 s⁻¹,< 1e-05 s⁻¹,< 1e-05 s⁻¹,< 1e-05 s⁻¹,< 1e-05 s⁻¹
G7C U54C,< 1e-05 s⁻¹,< 1e-05 s⁻¹,< 1e-05 s⁻¹,< 1e-05 s⁻¹,< 1e-05 s⁻¹
G7C U56A G59U G62C,< 1e-05 s⁻¹,–,–,–,< 1e-05 s⁻¹
G7C U56G,< 1e-05 s⁻¹,< 1e-05 s⁻¹,< 1e-05 s⁻¹,< 1e-05 s⁻¹,< 1e-05 s⁻¹
G7U,< 1e-05 s⁻¹,< 1e-05 s⁻¹,< 1e-05 s⁻¹,< 1e-05 s⁻¹,< 1e-05 s⁻¹
G7U A12U G32A C68U,< 1e-05 s⁻¹,< 1e-05 s⁻¹,–,–,< 1e-05 s⁻¹
G7U A14C,< 1e-05 s⁻¹,< 1e-05 s⁻¹,< 1e-05 s⁻¹,< 1e-05 s⁻¹,< 1e-05 s⁻¹
G7U A15C,< 1e-05 s⁻¹,< 1e-05 s⁻¹,< 1e-05 s⁻¹,< 1e-05 s⁻¹,< 1e-05 s⁻¹
G7U A33C G41A A48U,< 1e-05 s⁻¹,–,–,–,< 1e-05 s⁻¹
G7U A33U U54A,< 1e-05 s⁻¹,–,–,–,< 1e-05 s⁻¹
G7U A39U,< 1e-05 s⁻¹,–,< 1e-05 s⁻¹,–,< 1e-05 s⁻¹
G7U A42C,< 1e-05 s⁻¹,< 1e-05 s⁻¹,< 1e-05 s⁻¹,< 1e-05 s⁻¹,< 1e-05 s⁻¹
G7U A48U G60C,< 1e-05 s⁻¹,–,–,–,–
G7U A53G,< 1e-05 s⁻¹,< 1e-05 s⁻¹,< 1e-05 s⁻¹,< 1e-05 s⁻¹,< 1e-05 s⁻¹
G7U C10A G60U,< 1e-05 s⁻¹,–,< 1e-05 s⁻¹,< 1e-05 s⁻¹,–
G7U C16U A33G,< 1e-05 s⁻¹,–,–,–,< 1e-05 s⁻¹
G7U C58A C67G C70U,9.59e-05 ± 3.4e-05 s⁻¹,–,–,–,–

Variant,self-cleavage kobs at 40 uM GlcN6P (glucosamine-6-phosphate [1]),self-cleavage kobs at 640 uM GlcN6P (glucosamine-6-phosphate [2]),self-cleavage kobs at 160 uM GlcN6P (glucosamine-6-phosphate [3]),self-cleavage kobs at 2500 uM GlcN6P (glucosamine-6-phosphate [4]),self-cleavage kobs at 10000 uM GlcN6P (glucosamine-6-phosphate [5])
G7U C70G C71G,4.02e-05 ± 2e-05 s⁻¹,–,–,–,–
G7U G29C A33C U45G C68U,< 1e-05 s⁻¹,–,–,–,< 1e-05 s⁻¹
G7U G32A C58U,< 1e-05 s⁻¹,–,–,< 1e-05 s⁻¹,< 1e-05 s⁻¹
G7U G35U U46A C67U U69C,< 1e-05 s⁻¹,< 1e-05 s⁻¹,< 1e-05 s⁻¹,< 1e-05 s⁻¹,–
G7U G37C A39C G62C,< 1e-05 s⁻¹,–,–,–,–
G7U G38C,< 1e-05 s⁻¹,< 1e-05 s⁻¹,–,–,< 1e-05 s⁻¹
G7U G38U A42G G51U C71A,< 1e-05 s⁻¹,–,–,–,< 1e-05 s⁻¹
G7U G40C,< 1e-05 s⁻¹,< 1e-05 s⁻¹,–,< 1e-05 s⁻¹,< 1e-05 s⁻¹
G7U G51C U54A U65G C68A,< 1e-05 s⁻¹,–,–,–,–
G7U G60U U65A,< 1e-05 s⁻¹,–,–,–,< 1e-05 s⁻¹
G7U U31C C50A,< 1e-05 s⁻¹,–,–,–,< 1e-05 s⁻¹
G7U U31G C70U,< 1e-05 s⁻¹,–,–,–,–
G7U U45G C71A,< 1e-05 s⁻¹,–,–,< 1e-05 s⁻¹,< 1e-05 s⁻¹
G7U U47A,< 1e-05 s⁻¹,< 1e-05 s⁻¹,< 1e-05 s⁻¹,< 1e-05 s⁻¹,–
G7U U54G C70G C71U,7.3e-05 ± 2.8e-05 s⁻¹,–,–,–,5.65e-05 ± 2.5e-05 s⁻¹
G7U U55C,< 1e-05 s⁻¹,< 1e-05 s⁻¹,–,< 1e-05 s⁻¹,< 1e-05 s⁻¹
G7U U65A,< 1e-05 s⁻¹,< 1e-05 s⁻¹,< 1e-05 s⁻¹,< 1e-05 s⁻¹,< 1e-05 s⁻¹
C8A A15G G60A,< 1e-05 s⁻¹,< 1e-05 s⁻¹,–,< 1e-05 s⁻¹,–
C8A A33C A36C A42U C58G,< 1e-05 s⁻¹,< 1e-05 s⁻¹,–,< 1e-05 s⁻¹,–
C8A A33G,< 1e-05 s⁻¹,–,< 1e-05 s⁻¹,< 1e-05 s⁻¹,< 1e-05 s⁻¹
C8A A33G G44C,< 1e-05 s⁻¹,–,–,–,< 1e-05 s⁻¹
C8A A42C C67U,< 1e-05 s⁻¹,–,–,< 1e-05 s⁻¹,–
C8A A42C U47G C61U U69C,< 1e-05 s⁻¹,< 1e-05 s⁻¹,–,< 1e-05 s⁻¹,–
C8A A48C C67U,< 1e-05 s⁻¹,–,–,–,< 1e-05 s⁻¹
